Experimental data from patent US20260308230 (published 2026).
Read-outs that look alike come from different tables or passages of the source. Values belong to the binder of their own block, whether it stands above or below them.

Key:
Assay in all cases: BLI, 25C
Activin A [1] = target: T1, Activin A (human, UniProt P08476)
T1 chain: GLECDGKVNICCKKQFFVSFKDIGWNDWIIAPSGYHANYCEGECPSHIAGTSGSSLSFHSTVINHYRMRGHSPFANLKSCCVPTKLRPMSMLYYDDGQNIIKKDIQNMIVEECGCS

BMP-10 = target: T2, BMP-10 (human, UniProt O95393)
T2 chain: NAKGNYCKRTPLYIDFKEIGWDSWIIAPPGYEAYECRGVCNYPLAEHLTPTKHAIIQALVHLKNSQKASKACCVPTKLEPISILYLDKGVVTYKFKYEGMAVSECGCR

Activin A [2] = target: T1, Activin A
GDF-8 = GDF-8 (human, UniProt O14793)
Sequence of GDF-8 (O14793 267-375): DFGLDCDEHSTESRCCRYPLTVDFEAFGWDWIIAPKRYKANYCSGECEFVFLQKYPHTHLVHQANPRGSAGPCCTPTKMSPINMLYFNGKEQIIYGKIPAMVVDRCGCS

Activin A [3] = target: T1, Activin A
Activin B = target: T3, Activin B (UniProt P09529)
T3 chain: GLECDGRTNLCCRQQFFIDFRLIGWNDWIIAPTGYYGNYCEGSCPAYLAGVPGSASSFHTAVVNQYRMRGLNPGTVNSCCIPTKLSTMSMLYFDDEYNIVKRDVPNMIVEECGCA

GDF-11 = target: T4, GDF-11 (UniProt O95390)
T4 chain: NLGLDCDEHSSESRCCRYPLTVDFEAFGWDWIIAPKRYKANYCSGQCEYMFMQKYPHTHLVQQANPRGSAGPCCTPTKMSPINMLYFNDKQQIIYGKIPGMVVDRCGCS

binding result (Activin A [1]): no binding
B1: ACVR2A-24A/47A-Fc (protein)
chain: AILGRSETQECLFFNANWEKDRTAQTGVEPCYGDKDKRRHCFATWKAISGSIEIVKQGCWLDDINCYDRTDCVEKKDSPEVYFCCCEGNMCNEKFSYFPEMEVTQPTSNPVTPKPGGGGSGGGGSGGGGS[skipping human IgG1 Fc]

Kd (BMP-10): 2.23 nM
Kd (Activin A [2]): 0.351 nM
Kd (GDF-8): 9.65 nM
Kd (Activin A [3]): 0.0803 nM
Kd (Activin B): 4.62 nM
Kd (GDF-11): 8.48 nM
B2: ACVR2A-Fc (WT) (protein)
chain: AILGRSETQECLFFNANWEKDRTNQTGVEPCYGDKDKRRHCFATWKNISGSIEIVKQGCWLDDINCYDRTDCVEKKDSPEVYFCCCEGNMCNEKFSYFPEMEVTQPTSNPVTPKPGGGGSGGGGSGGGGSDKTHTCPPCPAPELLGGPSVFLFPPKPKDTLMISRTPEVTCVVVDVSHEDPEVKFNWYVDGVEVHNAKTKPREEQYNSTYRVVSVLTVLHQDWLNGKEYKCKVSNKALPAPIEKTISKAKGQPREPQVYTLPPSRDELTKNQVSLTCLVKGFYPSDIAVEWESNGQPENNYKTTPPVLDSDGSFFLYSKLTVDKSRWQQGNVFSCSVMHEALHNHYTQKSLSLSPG
modifications: homodimer, ACVR2A ECD-linker-IgG1 Fc fusion
